In PubChem BioAssay AID1454 (National Center for Advancing Translational Sciences (NCATS), 2008):
Where “and” joins values, the source holds several entries; their conditions need not be identical. Identical values can stand only once. About 550 (0.42%) of roughly 130,000 compounds were called active. The inconclusive results got no clear call from the source; some entries with a clear call stand among them for comparison. The call rests on the fitted dose curve; in most records, active means well fitted inhibition curve with a large enough effect; inconclusive means small, poorly fitted or top-dose-only effect, or effect the other way; inactive means flat fitted curve, though single readings scatter. Potencies of inconclusive entries are left out as doubtful fits. Where a structure was tested more than once in an assay, its records may differ in their call.
Potency means the concentration at half of the fitted maximal effect; tags describe the fitted curve by direction and shape.

Assay: qHTS Assay for Inhibitors of the ERK Signaling Pathway using a Homogeneous Screening Assay; Stimulation with EGF; further: nearly all actives have a fitted effect of over 55% in size;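 on activity change, negative = inhibition: plate controls were stimulated vehicle wells for no effect and unstimulated vehicle basal for full effect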
Conditions: HEK293-V1b, EGF-stimulated phospho-ERK AlphaScreen; activity change, negative = inhibition: at the top concentration
In short: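 In this qHTS, HEK293 cells with stable type-1 vasopressin (V1b) receptor were exposed to compound at 37C for 30 min, stimulated 5 min with EGF at 25 nM, lysed, and probed for phospho-ERK by AlphaScreen.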
In the case of `COc1ccccc1-c1nc(C#N)c(N2CC(C)CC(C)C2)o1` (stereo not drawn), the Potency is reported as inconclusive [inhibitor, single point].
With `CC1=C(/C=C/C(C)=C/C=C/C(C)=C/C=C/C=C(C)/C=C/C=C(C)/C=C/C2=C(C)C(=O)CCC2(C)C)C(C)(C)CCC1=O` the “activity change, negative = inhibition” value was inactive: 24.7%.
In the case of `c1ccc(-c2cc3c(N4CCN(c5ncccn5)CC4)ncnc3s2)cc1`, the Potency is reported as inconclusive [inhibitor, partial curve, poor fit].
With `CCOC(=O)C(=CNc1ccc2c(c1)c1ccccc1n2CC)C(=O)OCC` the Potency was inconclusive [activator, partial curve, poor fit].
For `COc1cc2nc(CN(C)Cc3ccc(SC)cc3)[nH]c(=O)c2cc1OC`, the Potency was inconclusive [inhibitor, full curve].
With `COc1ccccc1N1N=C(c2cccs2)CC1c1ccccc1` (stereo not drawn) the Potency was inconclusive [activator, partial curve].
In the case of `O=c1c2ccccc2nc(COc2ccccc2)n1/N=C/c1cc([N+](=O)[O-])ccc1O`, the Potency is reported as inconclusive [inhibitor, single point].
With `CCOC(=O)Cc1c(C)nc(N)[nH]c1=O` the Potency was inconclusive [inhibitor, single point].
With `COc1cccc(NC(=O)c2cc([N+](=O)[O-])ccc2NCc2cccnc2)c1` the Potency was inconclusive [inhibitor, single point].
In the case of `N=c1oc2ccccc2cc1-c1nc(-c2ccccc2)cs1`, the Potency is reported as inconclusive [activator, partial curve].
In the case of `Clc1nc(NCc2cccnc2)nc(N2CCOCC2)n1`, the “activity change, negative = inhibition” value is reported as inactive: 12%.
With `Oc1ccc(N=Nc2nc(-c3ccccc3)c(-c3ccccc3)[nH]2)cc1` the Potency was inconclusive [inhibitor, single point].
With `CCOC(=O)c1ccc(NC(=O)Nc2ccc3c(c2)OCCO3)cc1` the Potency was inconclusive [inhibitor, single point].
In the case of `COc1cc(/C=C/c2ccc(O)cc2)cc(OC)c1`, the Potency is reported as inconclusive [inhibitor, single point].
With `CCn1nc(C(=O)Nc2ccc(S(=O)(=O)Nc3ncccn3)cc2)c2ccccc2c1=O` the Potency was inconclusive [inhibitor, single point].
In the case of `c1ccc(-n2cccc2)c(N2CCCCC2)c1`, the Potency is reported as inconclusive [activator, full curve].
With `COc1ccc(CNc2nc3ccccc3n2Cc2ccc(C)cc2)cc1OC` the “activity change, negative = inhibition” value was inactive: 12.6%.
With `COc1ccc(/C=N/Nc2ncccc2[N+](=O)[O-])c(OC)c1` the Potency was inconclusive [inhibitor, partial curve].
With `CCn1c2c(c3cc(OCC(C)C)ccc31)CCCC2=O` the Potency was inconclusive [activator, partial curve].
For `O=C1CN(C(=O)COc2ccc(Br)cc2Br)c2ccccc2N1`, the Potency was inconclusive [inhibitor, single point].
With `CCCC(CCC)=NNc1ccc(S(=O)(=O)Nc2ccccc2OC)cc1[N+](=O)[O-]` the Potency was active: 14.1 µM.
With `O=c1[nH]c(SCc2ccc(F)cc2Cl)nc2ccccc12` the “activity change, negative = inhibition” value was inactive: -2.75%.
For `Cc1ccc(-c2nn(-c3ccccc3)cc2/C=C/C(=O)OCC(=O)NC2CC2)o1`, the Potency was inconclusive [inhibitor, single point].
In the case of `COc1cc(O)c(C(CCN2CCCC(C)C2)c2ccc(N(C)C)cc2)c(OC)c1` (stereo not drawn), the Potency is reported as inconclusive [inhibitor, single point].
In the case of `Fc1ccccc1/C=N/Nc1nc(-c2ccccn2)nc2ccccc12`, the Potency is reported as inconclusive [inhibitor, single point].
For `C=CCC(C)(O)c1cccs1` (stereo not drawn), the “activity change, negative = inhibition” value was inactive: -5.19%.
In the case of `COc1ccccc1C1CCN(c2ccc(CO)cc2[N+](=O)[O-])CC1`, the Potency is reported as inconclusive [inhibitor, single point].
For `C=C(C(=O)c1ccccc1)C(C)C(=C)C(=O)c1ccccc1`, the “activity change, negative = inhibition” value was inactive: -1.03%.
In the case of `CCn1nc(NC(=O)C2CCCO2)c2cc3cc(C)ccc3nc21` (stereo not drawn), the Potency is reported as inconclusive [activator, single point].
In the case of `CCNc1nc(NCC)n2c(SCC(=O)c3ccccc3F)nnc2n1`, the “activity change, negative = inhibition” value is reported as inactive: -1.55%.
In the case of `COc1ccc(/C=C2\CN(Cc3ccccc3)C/C(=C\c3ccc(OC)cc3)C2=O)cc1`, the Potency is reported as inconclusive [inhibitor, single point].
With `NC(=NCCCCCCN=C(N)/N=C(\N)Nc1ccc(Cl)cc1)/N=C(\N)Nc1ccc(Cl)cc1` the Potency was “inactive and active: 22.4 µM”.
In the case of `COc1ccc(C(=O)N2CCC[C@@]3(CCN(C(=O)Nc4cccc(C#N)c4)C3)C2)cc1`, the “activity change, negative = inhibition” value is reported as inactive: -8.6%.
In the case of `COc1ccc(/C=N/NC(=O)Cn2nnc3ccccc32)cc1OC`, the Potency is reported as inconclusive [activator, full curve].
In the case of `Nc1nc(SCC(=O)Nc2cccc(S(=O)(=O)N3CCCCCC3)c2)n[nH]1`, the Potency is reported as inconclusive [activator, partial curve, poor fit].
In the case of `O=C(Cc1ccccc1)N1N=C(c2ccncc2)CC1(O)C(F)(F)F` (stereo not drawn), the Potency is reported as inconclusive [inhibitor, full curve].
For `Cc1cc(C)cc(C(=O)OCC(=O)Nc2cccc(S(=O)(=O)NC3=NCCCCC3)c2)c1`, the Potency was inconclusive [inhibitor, single point].
For `Cc1onc(-c2ccccc2)c1C(=O)N/N=C/c1cccs1`, the Potency was inconclusive [inhibitor, partial curve].
In the case of `CC(=O)NNc1ncnc2c1cnn2-c1ccc(C)c(Cl)c1`, the Potency is reported as inconclusive [inhibitor, single point].
In the case of `CCC(C)C(NC(=O)c1ccccc1NC(=O)c1ccco1)C(=O)NNC(=O)c1ccncc1` (stereo not drawn), the “activity change, negative = inhibition” value is reported as inactive: 4.88% [at 57.5 µM].
With `CCOC(=O)Cc1nn(Cc2nc(-c3ccc(C#N)cc3)cs2)c(=O)c2ccccc12` the Potency was inconclusive [inhibitor, partial curve].
With `COc1ccc2nccc(/C=C/c3ccnc4ccc(OC)cc34)c2c1` the Potency was inconclusive [inhibitor, single point].
In the case of `COc1ccc(-c2csc(NC3=NCCCCC3)n2)cc1`, the “activity change, negative = inhibition” value is reported as inactive: 9.69%.
